Test results published in the supplement of paper PMC8728848.
The list shows a part of the results.

What was measured:
Experiment in all cases: glycan array binding signal (z-score within array); higher = stronger binding
Settings in all cases: glycan notation: IUPAC condensed, linker removed
[1] = target: Gal(b1-3)GalNAc(b1-3)Gal(a1-4)Gal(b1-4)Glc
Summary of the method: (§1)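 Negative Z-scores can be read as non-binding. The Z-score is calculated within each array and then averaged across arrays of one protein sequence at different concentrations or buffers and across linkers. Arrays, 3228 in all, were curated from the Consortium for Functional Glycomics database and kept only where the protein sequence was available.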

[2] = target: Gal(b1-3)GalNAc(b1-4)Gal(b1-4)Glc
Summary of the method: as §1

[3] = target: Gal(b1-3)GalNAc(b1-4)[Neu5Ac(a2-3)]Gal(b1-4)Glc
Summary of the method: as §1

Gal(b1-3)GlcNAc = target: Gal(b1-3)GlcNAc
Summary of the method: as §1

[4] = target: Gal(b1-3)GlcNAc(a1-3)Gal(b1-4)GlcNAc
Summary of the method: as §1

[5] = target: Gal(b1-3)GlcNAc(a1-6)Gal(b1-4)GlcNAc
Summary of the method: as §1

Gal(b1-3)GlcNAc(b1-2)Man = target: Gal(b1-3)GlcNAc(b1-2)Man
Summary of the method: as §1

[6] = target: Gal(b1-3)GlcNAc(b1-2)Man(a1-3)[Gal(b1-3)GlcNAc(b1-2)Man(a1-6)]Man(b1-4)GlcNAc(b1-4)GlcNAc
Summary of the method: as §1

[7] = target: Gal(b1-3)GlcNAc(b1-2)Man(a1-3)[Gal(b1-3)GlcNAc(b1-2)Man(a1-6)]Man(b1-4)GlcNAc(b1-4)[Fuc(a1-6)]GlcNAc
Summary of the method: as §1

[8] = target: Gal(b1-3)GlcNAc(b1-2)Man(a1-3)[GlcNAc(b1-4)][Gal(b1-3)GlcNAc(b1-2)Man(a1-6)]Man(b1-4)GlcNAc(b1-4)GlcNAc
Summary of the method: as §1

[9] = target: Gal(b1-3)GlcNAc(b1-2)[Gal(b1-3)GlcNAc(b1-6)]Man(a1-6)[Gal(b1-3)GlcNAc(b1-2)Man(a1-3)]Man(b1-4)GlcNAc(b1-4)GlcNAc
Summary of the method: as §1

[10] = target: Gal(b1-3)GlcNAc(b1-3)Gal(b1-3)GlcNAc
Summary of the method: as §1

[11] = target: Gal(b1-3)GlcNAc(b1-3)Gal(b1-4)Glc
Summary of the method: as §1

[12] = target: Gal(b1-3)GlcNAc(b1-3)Gal(b1-4)GlcNAc
Summary of the method: as §1

[13] = target: Gal(b1-3)GlcNAc(b1-3)Gal(b1-4)GlcNAc(b1-2)Man(a1-3)[Gal(b1-3)GlcNAc(b1-3)Gal(b1-4)GlcNAc(b1-2)Man(a1-6)]Man(b1-4)GlcNAc(b1-4)GlcNAc
Summary of the method: as §1

[14] = target: Gal(b1-3)GlcNAc(b1-3)Gal(b1-4)GlcNAc(b1-2)[Gal(b1-3)GlcNAc(b1-3)Gal(b1-4)GlcNAc(b1-6)]Man(a1-6)[Gal(b1-3)GlcNAc(b1-3)Gal(b1-4)GlcNAc(b1-2)Man(a1-3)]Man(b1-4)GlcNAc(b1-4)[Fuc(a1-6)]GlcNAc
Summary of the method: as §1

[15] = target: Gal(b1-3)GlcNAc(b1-3)Gal(b1-4)GlcNAc(b1-3)Gal(b1-4)GlcNAc(b1-2)[Gal(b1-3)GlcNAc(b1-3)Gal(b1-4)GlcNAc(b1-3)Gal(b1-4)GlcNAc(b1-6)]Man(a1-6)[Gal(b1-3)GlcNAc(b1-3)Gal(b1-4)GlcNAc(b1-3)Gal(b1-4)GlcNAc(b1-2)Man(a1-3)]Man(b1-4)GlcNAc(b1-4)[Fuc(a1-6)]GlcNAc
Summary of the method: as §1

[16] = target: Gal(b1-3)GlcNAc(b1-3)Gal(b1-4)GlcNAc(b1-6)[Gal(b1-3)GlcNAc(b1-3)]Gal(b1-4)Glc
Summary of the method: as §1

[17] = target: Gal(b1-3)GlcNAc(b1-3)Gal(b1-4)[Fuc(a1-3)]GlcNAc
Summary of the method: as §1

[18] = target: Gal(b1-3)GlcNAc(b1-3)Gal(b1-4)[Fuc(a1-3)]GlcNAc(b1-6)[Gal(b1-3)GlcNAc(b1-3)]Gal(b1-4)Glc
Summary of the method: as §1

[19] = target: Gal(b1-3)GlcNAc(b1-3)GalNAc
Summary of the method: as §1

[20] = target: Gal(b1-3)GlcNAc(b1-6)Gal(b1-4)GlcNAc
Summary of the method: as §1

[21] = target: Gal(b1-3)GlcNAc(b1-6)GalNAc
Summary of the method: as §1

[22] = target: Gal(b1-3)GlcNAc(b1-6)[Gal(b1-3)]GalNAc
Summary of the method: as §1

Gal(b1-3)GlcNAc6S = target: Gal(b1-3)GlcNAc6S
Summary of the method: as §1

[23] = target: Gal(b1-3)[Fuc(a1-4)]GlcNAc
Summary of the method: as §1

[24] = target: Gal(b1-3)[Fuc(a1-4)]GlcNAc(b1-2)Man
Summary of the method: as §1

[25] = target: Gal(b1-3)[Fuc(a1-4)]GlcNAc(b1-2)Man(a1-3)[Gal(b1-3)[Fuc(a1-4)]GlcNAc(b1-2)Man(a1-6)]Man(b1-4)GlcNAc(b1-4)[Fuc(a1-6)]GlcNAc
Summary of the method: as §1

[26] = target: Gal(b1-3)[Fuc(a1-4)]GlcNAc(b1-3)Gal(b1-3)[Fuc(a1-4)]GlcNAc
Summary of the method: as §1

[27] = target: Gal(b1-3)[Fuc(a1-4)]GlcNAc(b1-3)Gal(b1-4)[Fuc(a1-3)]GlcNAc
Summary of the method: as §1

[28] = target: Gal(b1-3)[Fuc(a1-4)]GlcNAc(b1-6)GalNAc
Summary of the method: as §1

[29] = target: Gal(b1-3)[GlcNAc(b1-6)]GalNAc
Summary of the method: as §1

[30] = target: Gal(b1-3)[Neu5Ac(a2-6)]GalNAc
Summary of the method: as §1

[31] = target: Gal(b1-3)[Neu5Ac(a2-6)]GlcNAc(b1-4)Gal(b1-4)Glc
Summary of the method: as §1

[32] = target: Gal(b1-3)[Neu5Ac(b2-6)]GalNAc
Summary of the method: as §1

Gal(b1-4)Gal = target: Gal(b1-4)Gal
Summary of the method: as §1

[33] = target: Gal(b1-4)GalNAc(a1-3)[Fuc(a1-2)]Gal(b1-4)GlcNAc
Summary of the method: as §1

[34] = target: Gal(b1-4)GalNAc(b1-3)[Fuc(a1-2)]Gal(b1-4)GlcNAc
Summary of the method: as §1

B1: B1257 (Bifidobacterium sp) (protein)
chain: MKKSIRLVAAIAALAMTAGISACGSSTNGNQAKSDVTAQDVETALTDTSKNVELTVWAYSAKQMEPTVKAFEKKYPHIKINFVNTGAAGDHFTKFQNVVQAQKDIPDVVQMGANKFQQFAVSGALLNFANDSIEKAWSKLYTKTAWAQVHYAGGLYGAPQDATPLANYVRKDILDEHNLQVPESWEDIYNEGIKLHKEDSNKYMGILGSDISFFTNLYRSVGARLWKVNSVDDVELTMNSGKAKEFTEFLQKCLKDGVLEGGTVFTDEFNRSINDGRYATFINENWMGNTYKEQNPSLKGKMVVAAPPSWKGQPYQSSSVGSMMSVSAACPKEKQAAALAFINWLDSDKDAIQSWQDTNNGNFFMAASVYQDDENQRNKKETDGYYANDDVNAVYFDSMDKVNTDWEYLPFMSQVEVVFNDVIVPQMNENGDLVGAMAKAQQELKTYAKDNGFKVTTDAD
Q: B1 was tested. Which “glycan array binding signal (z-score)” value [1] did it give?
A: The value was -0.109.

Q: And the “glycan array binding signal (z-score)” value [2]?
A: The value was -0.085.

Q: What about the “glycan array binding signal (z-score)” value [3] of the same binder?
A: Its value is -0.22.

Q: What about the “glycan array binding signal (z-score)” value (Gal(b1-3)GlcNAc) of the same binder?
A: The value was 0.009.

Q: What about the “glycan array binding signal (z-score)” value [4] of the same binder?
A: Its value is -0.124.

Q: What about the “glycan array binding signal (z-score)” value [5] of the same binder?
A: Its value is -0.081.

Q: And the “glycan array binding signal (z-score)” value (Gal(b1-3)GlcNAc(b1-2)Man)?
A: The value was 0.018.

Q: What about the “glycan array binding signal (z-score)” value [6] of the same binder?
A: Its value is -0.095.

Q: What about the “glycan array binding signal (z-score)” value [7] of the same binder?
A: The value was -0.121.

Q: What about the “glycan array binding signal (z-score)” value [8] of the same binder?
A: Its value is 0.324.

Q: And the “glycan array binding signal (z-score)” value [9]?
A: The value was 0.083.

Q: And the “glycan array binding signal (z-score)” value [10]?
A: Its value is -0.077.

Q: And the “glycan array binding signal (z-score)” value [11]?
A: The value was -0.067.

Q: What about the “glycan array binding signal (z-score)” value [12] of the same binder?
A: The value was -0.015.

Q: And the “glycan array binding signal (z-score)” value [13]?
A: The value was -0.023.

Q: What about the “glycan array binding signal (z-score)” value [14] of the same binder?
A: Its value is 0.076.

Q: And the “glycan array binding signal (z-score)” value [15]?
A: The value was 0.212.

Q: And the “glycan array binding signal (z-score)” value [16]?
A: Its value is -0.062.

Q: And the “glycan array binding signal (z-score)” value [17]?
A: Its value is -0.13.

Q: And the “glycan array binding signal (z-score)” value [18]?
A: Its value is -0.021.

Q: What about the “glycan array binding signal (z-score)” value [19] of the same binder?
A: The value was -0.129.

Q: And the “glycan array binding signal (z-score)” value [20]?
A: Its value is -0.056.

Q: What about the “glycan array binding signal (z-score)” value [21] of the same binder?
A: Its value is 0.012.

Q: And the “glycan array binding signal (z-score)” value [22]?
A: Its value is 0.202.

Q: What about the “glycan array binding signal (z-score)” value (Gal(b1-3)GlcNAc6S) of the same binder?
A: Its value is -0.058.

Q: And the “glycan array binding signal (z-score)” value [23]?
A: The value was -0.093.

Q: And the “glycan array binding signal (z-score)” value [24]?
A: The value was 0.

Q: What about the “glycan array binding signal (z-score)” value [25] of the same binder?
A: Its value is 0.461.

Q: What about the “glycan array binding signal (z-score)” value [26] of the same binder?
A: Its value is -0.086.

Q: And the “glycan array binding signal (z-score)” value [27]?
A: Its value is -0.048.

Q: What about the “glycan array binding signal (z-score)” value [28] of the same binder?
A: Its value is 0.177.

Q: And the “glycan array binding signal (z-score)” value [29]?
A: The value was -0.04.

Q: What about the “glycan array binding signal (z-score)” value [30] of the same binder?
A: The value was -0.163.

Q: What about the “glycan array binding signal (z-score)” value [31] of the same binder?
A: Its value is -0.197.

Q: And the “glycan array binding signal (z-score)” value [32]?
A: The value was -0.038.

Q: What about the “glycan array binding signal (z-score)” value (Gal(b1-4)Gal) of the same binder?
A: Its value is -0.08.

Q: And the “glycan array binding signal (z-score)” value [33]?
A: Its value is -0.168.

Q: What about the “glycan array binding signal (z-score)” value [34] of the same binder?
A: The value was -0.052.
